Among all 210,000 compounds or so, about 5,900 (2.8%) were called active. Inconclusive results, whose numbers are uncertain, are shown with a selection of clear calls. Calls follow the shape of the dose curve; as a rule, active = well fitted activation curve with a large enough effect; inconclusive = small, poorly fitted or top-dose-only effect; inactive = no such curve, though single readings can be large or run the other way. Potencies of inconclusive entries are doubtful fits and often do not repeat.
test: qHTS Assay for Enhancers of SMN2 Splice Variant Expression; details: HEK293 SMN2-luciferase splicing reporter, luminescence, 30-36 h; activity change, positive = activation: at 46.1 µM (top of the series); also: nearly all actives have a fitted effect of over 55% in size; as to activity change, positive = activation: % of control where 0% means no effect
How it was run: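 qHTS luciferase splicing reporter: luminescence rises when SMN2 exon 7 is included in transfected HEK293 cells. Compound exposure lasted 30-36 h at 37C, with 4.5 mM final sodium butyrate as control, followed by a ONE-Glo read.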
Potency is read from the fitted curve at half-maximal effect; tags tell the direction and shape of the fitted curve.

SMILES | Potency | activity change, positive = activation
Cc1ccsc1C1C(C#N)=C(N)N(N(C)C)C2=C1C(=O)CC(C)(C)C2 (configuration not stated) | active: 25.1 µM | –
CCOC(=O)c1c(N)nn(C(=O)C(C)(C)C)c1-c1ccccc1 | inconclusive: 0.0708 µM [activator, full curve, poor fit] | –
Cc1ccc(-c2nnc(SCC(=O)N3CCCC3)o2)cc1C | active: 11.2 µM | –
NC(=O)c1ccc2nc(NC(=O)c3ccc(N)cc3)sc2c1 | inconclusive: 12.6 µM [activator, partial curve] | –
C=CCN1C(=O)/C(=C\C=C2\N(C)c3ccccc3C2(C)C)SC1=S | – | inactive: -23%
CC1=C(C(=O)Nc2cccc(C)c2C)C(c2cccs2)NC(=S)N1 (configuration not stated) | inconclusive: 0.224 µM [activator, full curve] | –
CCCCc1ccc(NC(=S)N2CCCC(CO)C2)cc1 (configuration not stated) | inconclusive: 11.2 µM [activator, partial curve] | –
O=C(N/N=C/c1ccccc1OCc1ccccc1)c1cccnc1 | – | inactive: 14.2%
O=C(Nc1ccc(S(=O)(=O)NCCc2ccccc2)cc1)c1ccco1 | inconclusive: 0.0035 µM [activator, full curve, poor fit] | –
Cc1ccc(C(=O)CC2(O)C(=O)N(Cc3ccccc3Cl)c3ccccc32)o1 (configuration not stated) | inconclusive: 0.562 µM [activator, full curve, poor fit] | –
COc1ccc(/C=C/c2nc3ccccc3n2Cc2ccccc2OC)cc1 | active: 7.94 µM | –
S=C(Nc1ccccc1Cl)NC1CCCCCC1 | inconclusive: 14.1 µM [activator, partial curve] | –
O=c1c2cc(Br)ccc2nc(-c2ccc([N+](=O)[O-])cc2)n1O | – | inactive: -74%
C=CCn1c(=O)/c(=C2/SC(C)=C(C)N2CC)s/c1=C1/C(=O)N(CC)C(=S)N1c1ccccc1 | inconclusive: 7.08 µM [activator, partial curve] | –
CC12CCC(C(=O)Nc3cc(F)ccc3F)(CC1=O)C2(C)C (configuration not stated) | inconclusive: 0.251 µM [activator, partial curve] | –
Cc1sc(=NC(=O)c2ccco2)n(C)c1-c1ccc(F)cc1 | active: 3.55 µM | –
Cc1ccc2nc3ccc(N4CCCCCCC4)nn3c(=O)c2c1 | inconclusive: 35.5 µM [activator, single point] | –
O=C(N/N=C/c1ccc(Cl)cc1Cl)c1cccc(F)c1 | inconclusive: 31.6 µM [activator, single point] | –
CCOC(=O)N1CCN(C(=O)c2cnsn2)CC1 | inconclusive: 3.98 µM [activator, full curve, poor fit] | –
COc1cc(C(=O)Oc2ccccc2N)cc(OC)c1OC | inconclusive: 35.5 µM [activator, single point] | –
COc1ccccc1-c1n[nH]c(=S)n1-c1ccccc1 | inconclusive: 11.2 µM [activator, single point] | –
N#Cc1cc2c(=O)n3ccccc3nc2n(-c2nnc(SCc3ccc(F)cc3)s2)c1=O | – | inactive: -1.28%
Cc1nnc(N2CCCCC2)c2ccccc12 | inconclusive: 0.02 µM [activator, full curve, poor fit] | –
CSCCC1NC(=O)N(CC(=O)N2N=C(c3ccc(Cl)cc3)CC2c2ccco2)C1=O (configuration not stated) | – | inconclusive: 31.9% [activator]

SMILES | Potency | activity change, positive = activation
CCCCC(=O)Nc1cccc(-c2csc(-c3ccccc3)n2)c1 | inconclusive: 22.4 µM [activator, single point] | –
O=C(Nc1ccc(Cl)c(C(F)(F)F)c1)C(=O)N1CCCCC1 | inconclusive: 22.4 µM [activator, single point] | –
O=C(NCCCn1ccnc1)c1cc(-c2ccccc2)on1 | inconclusive: 17.8 µM [activator, single point] | –
CCc1ccc(Nc2nnc(SCC(=O)c3ccc4c(c3)NC(=O)CO4)s2)cc1 | inconclusive: 10 µM [activator, partial curve] | –
c1ccc(-c2nnc(-c3c[nH]c4ccccc34)nc2-c2ccccc2)cc1 | – | inactive: -30.1%
CC(=O)N1N=C(c2cccc([N+](=O)[O-])c2)OC1c1ccc(Cl)cc1Cl (configuration not stated) | inconclusive: 0.562 µM [activator, full curve] | –
Cc1ccc(C(=O)/C=C2/NC(=O)CS2)cc1 | active: 20 µM | –
Cc1cc(C(=O)Nc2ccon2)cs1 | inconclusive: 2.51 µM [activator, partial curve, poor fit] | –
Cc1nn(Cc2c(F)c(F)c(F)c(F)c2F)c(C)c1NC(=O)c1cccc(COc2ccccc2Cl)c1 | active: 10 µM | –
CC1(c2ccc(Cl)cc2)NC(=O)N(CC(=O)NCc2cccs2)C1=O (configuration not stated) | inconclusive: 0.126 µM [activator, partial curve, poor fit] | –
COc1ccc(/C=C/C(=O)c2ccc[nH]2)c(OC)c1OC | inconclusive: 15.8 µM [activator, partial curve] | –
Cc1cccc(OCC(=O)Nc2ccc(N3CCN(S(C)(=O)=O)CC3)cc2)c1C | inconclusive: 35.5 µM [activator, single point] | –
NC1=NC(=O)/C(=C/c2ccccc2OS(=O)(=O)c2ccc3ccccc3c2)S1 | – | inactive: 11.1%
CCc1cccc(C)c1NC(=O)COC(=O)c1c2c(nc3ccccc13)/C(=C\c1cccs1)CCC2 | – | inactive: -4.01%
CC(C)n1c(SCc2ccc(Cl)cc2)nc2c1c(=O)[nH]c(=O)n2C | – | inactive: -7.19%
CCn1c(CSc2nnc(-c3ccc4c(c3)OCO4)o2)nc2cc(S(=O)(=O)N(C)C)ccc21 | – | inactive: -25.6%
CCC(=O)N1c2ccccc2C(N(C(C)=O)c2ccccc2)CC1C (configuration not stated) | active: 5.62 µM | –
COC(=O)c1cccn(CC(=O)c2ccc(Cl)cc2Cl)c1=O | – | inactive: 7.16%
O=C(NC1CCCCCC1)c1cccc(N2CCCC2=O)c1 | active: 7.08 µM | –
Cc1ccc(NC(=O)Cn2ncn3c(cc4ccccc43)c2=O)cc1C | – | inactive: -22.2%
Cn1c(SCC(=O)NCc2ccccc2)nc2c([nH]c3ccccc32)c1=O | inconclusive: 10 µM [activator, partial curve] | –
CC#CCCCC(=O)Nc1ccccc1C(=O)O | inconclusive: 7.08 µM [activator, partial curve] | –
O=C1CCCCC1C(Nc1ccc(Cl)cc1)c1ccccc1 (configuration not stated) | inconclusive: 1 µM [activator, partial curve] | –
O=C(Cn1c(=O)n(Cc2ccc(C(=O)NCc3ccc4c(c3)OCO4)cc2)c(=O)c2ccccc21)Nc1cccc(Cl)c1 | – | inactive: -0.833%

SMILES | Potency | activity change, positive = activation
O=C(NC1CCCCC1)C(=S)NCc1ccccc1 | inconclusive: 35.5 µM [activator, single point] | –
COc1ccc2c3c(ccc2c1)N[C@H](C(=O)O)CC3 | inconclusive: 3.98 µM [activator, single point] | –
COc1ccccc1NC(=O)Nc1ccc(C(N)=O)cc1 | inconclusive: 12.6 µM [activator, partial curve, poor fit] | –
Cc1ncc(CO)c(/C=N/NC(=O)c2ccc(O)cc2)c1O | inconclusive: 0.126 µM [activator, full curve, poor fit] | –
O=C(Nc1ccc(N2CCCC2)c(Cl)c1)c1cccs1 | active: 2.82 µM | –
COc1cccc(Nc2nc(CN3CCOCC3)nc3sc4c(c23)CCCC4)c1 | – | inactive: 3.2%
C=CCNC(=O)c1onc(CSc2ccc(Cl)cc2)c1C(=O)O | inconclusive: 35.5 µM [activator, single point] | –
CCOC(=O)c1sc(-c2ccc(F)cc2)cc1N | inconclusive: 8.91 µM [activator, partial curve] | –
O=C(O)c1ccc2nc(C(F)(F)F)[nH]c2c1 | inconclusive: 0.0316 µM [activator, full curve, poor fit] | –
COC(=O)c1ccc(NC(=O)C(=O)N2CCCC2)cc1 | inconclusive: 11.2 µM [activator, single point] | –
CCOc1ccc2nc(NC(=O)c3nc(SCc4ccc(C)cc4)ncc3Cl)sc2c1 | – | inactive: 2.91%
O=C(c1ccccc1)c1ccc2nc(N3CCN(c4ccc(F)cc4)CC3)c3nncn3c2c1 | – | inactive: 6.9%
COc1cccc(NC(=O)Nc2cccs2)c1 | inconclusive: 22.4 µM [activator, single point] | –
COc1ccc(CNC(=O)CSCc2ccccc2Cl)cc1 | inconclusive: 8.91 µM [activator, partial curve, poor fit] | –
CC(C)CN1C=C2C(=O)C(C)(OC(=O)CCc3ccccc3)C(=O)C=C2C=C1c1ccc(C#N)cc1 (configuration not stated) | – | inactive: -1.93% [at 9.22 µM]
O=C1CSC(c2ccccn2)N1Cc1cn2ccccc2n1 (configuration not stated) | inconclusive: 11.2 µM [activator, partial curve] | –
COc1ccccc1-c1cc(C(=O)N/N=C/c2ccc(C)s2)c2ccccc2n1 | inconclusive: 35.5 µM [activator, single point] | –
Cc1cc(C)nc(SCc2cccc(C(=O)O)c2)n1 | inconclusive: 35.5 µM [activator, single point] | –
CC(CC1CC(C)(C)OC1=O)C(=O)Nc1ccc([N+](=O)[O-])cc1 (configuration not stated) | inconclusive: 0.0126 µM [activator, full curve, poor fit] | –
c1ccn2cc(CSC3=NCCS3)nc2c1 | inconclusive: 10 µM [activator, partial curve] | –
COc1cc(/C=N/NC(N)=S)ccc1OCc1ccc(C)cc1 | inconclusive: 35.5 µM [activator, single point] | –
O=C(N=C1SCC(=O)N1c1ccccc1Cl)c1ccccc1 | active: 12.6 µM | –
COc1ccc(-c2nc3ccccc3s2)cc1NC(C)=O | active: 11.2 µM | –
O=C(Nc1ccn(Cc2ccccc2F)n1)c1ccc(COc2cccc(Br)c2)cc1 | inconclusive: 0.891 µM [activator, partial curve] | –

— PubChem BioAssay AID1458 (National Center for Advancing Translational Sciences (NCATS), 2008)
